Assay results taken from PMC4336329 (PLoS ONE, 2015).
Screen size: about 310,000 compounds; about 14,000 (4.5%) showed an effect of 50% or more. Effects have a minus sign here. The list shows a part of the results.

Target: human ether-à-go-go-related gene (hERG) potassium channel (human, UniProt Q12809)
Assay: primary screen, population patch clamp on CHO cells stably expressing hERG
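Further: peak tail current of the secondary pulse compared with the same well before compound.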

Sequence of human ether-à-go-go-related gene (hERG) potassium channel (Q12809 whole entry, looked up): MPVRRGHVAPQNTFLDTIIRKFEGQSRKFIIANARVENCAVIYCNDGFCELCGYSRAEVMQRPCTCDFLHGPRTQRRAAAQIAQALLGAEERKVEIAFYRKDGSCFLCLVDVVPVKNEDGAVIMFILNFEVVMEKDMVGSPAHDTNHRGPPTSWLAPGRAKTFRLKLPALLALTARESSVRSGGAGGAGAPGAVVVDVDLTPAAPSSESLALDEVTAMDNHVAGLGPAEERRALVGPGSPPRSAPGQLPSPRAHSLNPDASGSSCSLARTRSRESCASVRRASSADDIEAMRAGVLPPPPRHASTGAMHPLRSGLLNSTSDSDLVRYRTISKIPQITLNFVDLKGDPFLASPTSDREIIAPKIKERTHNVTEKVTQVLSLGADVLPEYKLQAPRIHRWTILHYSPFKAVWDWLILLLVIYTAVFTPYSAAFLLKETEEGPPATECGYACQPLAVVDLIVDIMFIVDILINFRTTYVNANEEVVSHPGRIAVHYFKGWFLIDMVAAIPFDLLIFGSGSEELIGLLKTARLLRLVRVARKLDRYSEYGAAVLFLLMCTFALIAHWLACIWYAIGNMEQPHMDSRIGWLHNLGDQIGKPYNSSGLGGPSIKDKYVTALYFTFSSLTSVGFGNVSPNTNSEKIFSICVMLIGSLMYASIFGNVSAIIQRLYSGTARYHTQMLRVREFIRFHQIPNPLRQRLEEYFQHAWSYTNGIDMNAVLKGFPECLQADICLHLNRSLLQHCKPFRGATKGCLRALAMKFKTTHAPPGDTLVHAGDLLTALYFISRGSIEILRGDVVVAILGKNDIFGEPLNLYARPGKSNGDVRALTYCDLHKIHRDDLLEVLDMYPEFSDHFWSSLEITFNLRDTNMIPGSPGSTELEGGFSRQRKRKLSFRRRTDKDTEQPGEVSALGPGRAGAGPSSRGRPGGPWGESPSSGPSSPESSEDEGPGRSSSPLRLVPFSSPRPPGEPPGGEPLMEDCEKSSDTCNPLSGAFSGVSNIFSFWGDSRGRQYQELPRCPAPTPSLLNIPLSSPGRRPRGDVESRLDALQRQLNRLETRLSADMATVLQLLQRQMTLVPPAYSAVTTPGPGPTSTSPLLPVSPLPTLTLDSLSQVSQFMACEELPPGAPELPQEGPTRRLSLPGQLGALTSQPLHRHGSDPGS

SMILES | hERG current change (%, negative = inhibition) at 10uM
Cc1nc2ccc(NC(=O)CS(=O)(=O)c3ccccc3)cc2s1 | 0.463%
O=C(Nc1ccc(Cl)cc1)N1CCCN(c2ccc(C(F)(F)F)cc2[N+](=O)[O-])CC1 | 4.29%
N#CC1=C(N)C(C#N)(C#N)C(c2cccnc2)C2CN(C(=O)OCc3ccccc3)CC=C12 (centres unmarked) | -16.6%
COc1ccc(N(C(C)C(=O)Nc2ccc(S(=O)(=O)N3CCCCC3)cc2)S(C)(=O)=O)cc1 (centres unmarked) | 7.62%
COc1ccc(C(CNC(=O)CNC(=O)c2ccccc2Cl)N2CCCC2)cc1 (centres unmarked) | -15.3%
CN(CC(=O)Nc1ccccc1Br)C(=O)CCc1ccccc1 | 14.2%
Cc1ccc(S(=O)(=O)N2CC(=O)Nc3ccccc32)cc1C | -12.1%
Cc1cc(NC(=O)CSc2nc(-c3ccc(Br)cc3)nc3c2c(=O)n(C)c(=O)n3C)no1 | -8.93%
Cc1cc(C)cc(Nc2cc(=O)n(C3CCCCC3)c(=O)[nH]2)c1 | 10.2%
CCCOc1ccc(/C=N/O)cc1 | 8.28%
O=S(=O)(Nc1cccc(-c2nnco2)c1)c1ccc(F)cc1F | 15.9%
CC(=O)NC(CC(=O)NCC(=O)Nc1ccc(F)c(F)c1)c1ccccc1 (centres unmarked) | 19.6%
O=C(c1ccc2c(=O)n(Cc3ccc4c(c3)OCO4)c(=S)[nH]c2c1)N1CCC2(CC1)OCCO2 | -13.9%
CCCCCOc1ccc(C)cc1CN(CCCl)CCCl.Cl | 13.1%
O=[N+]([O-])c1ccc(/C=N/Nc2ccc3ccccc3c2)o1 | 9.24%
CSc1cc(N2CCOCC2)nc(-c2ccccc2Cl)n1 | 2.88%
COc1ccccc1CN1CCN(Cc2ccc3ccccc3c2)CC1.O=C(O)C(=O)O | -36.7%
CCOCc1cc(CN2CCCC(CNC(=O)c3ccco3)C2)ccc1OC (centres unmarked) | -48.3%
Cc1sc(NC(=O)C(C)C)c(C(=O)Nc2ccccc2)c1C | 4.7%
O=C(NC(=S)N1CCCCC1c1cccnc1)c1ccc(F)cc1 (centres unmarked) | 5.06%
O=C(Cc1cccs1)Nc1ccc(F)cc1F | -0.592%
O=C(CSc1nnc(CNC(=O)c2ccccc2F)o1)NCCc1ccccc1 | 0.688%

SMILES | hERG current change (%, negative = inhibition) at 10uM
Cc1cc(NC(=O)Cn2c(=O)c3c(ncn3CCC(C)C)n(Cc3ccccc3)c2=O)no1 | -17.5%
Cc1cc(C)c(S(=O)(=O)NCCOc2ccccc2)c(C)c1-n1cnnn1 | 7.74%
O=C1OCCN1CCNCc1cn(-c2ccc(F)cc2)nc1-c1ccccc1Cl | -45.2%
Clc1ccccc1OCCn1nnc2ccccc21 | -4.21%
Cc1ccccc1NC(=O)c1ccccc1 | 9.71%
COC(=O)CSc1nnnn1-c1ccccc1 | 24.6%
CC(=N/O)/C(C)=N\NC(=O)c1ccccn1 | 19.2%
O=C(COC(=O)c1cc(S(=O)(=O)N2CCOCC2)ccc1O)NCCc1ccccc1 | -4.93%
CCOc1cc(C)c(S(=O)(=O)Nc2ccc(F)cc2)cc1C | -7.43%
N#CC1=C(N)SC(N)=C(C#N)C1CCC1CCCCC1 | 16.5%
O=C(CN(c1ccccc1)S(=O)(=O)c1ccc(F)cc1)NC1CCCCCC1 | -6.17%
Fc1cccc(Cl)c1/C=N/Nc1c(Cl)cncc1Cl | -7.36%
Cc1cc(NCc2ccccc2)c2ccccc2n1.Cl | -67.5%
CCOC(=O)c1c(NC(=O)CSc2nnc(C)s2)sc2c1CCCCC2 | 12.7%
CCOc1ccc(CCNC(=O)COC(=O)c2ccc(C)c([N+](=O)[O-])c2)cc1OCC | -7.57%
O=C1c2cccc3cccc(c23)C(=O)N1Cc1cccnc1 | -4.51%
CCCC(=O)Nc1nc(C)c(-c2csc(Nc3ccccc3OC)n2)s1 | 5.74%
Cc1nn(Cc2cccc(C(=O)Nc3ccn(Cc4ccccc4)n3)c2)c(C)c1[N+](=O)[O-] | -9.27%
CC(Nc1cccc2ccccc12)C(=O)N/N=C/c1ccc([N+](=O)[O-])cc1 (centres unmarked) | -4.28%
CCCOC(=O)/C=C/c1c(C)[nH]c(=O)[nH]c1=O | 2.13%
Cc1ccc(NC(=S)NCc2ccc(Cl)cc2)c(OC(F)F)c1 | -6.64%
CCOc1ccccc1N(CC(=O)NCCSc1ccccc1)S(C)(=O)=O | 1.91%
